Data on 109 molecules can be found in PubChem BioAssay AID488969 (Vanderbilt High Throughput Screening Facility, 2010).

SMILES strings stand for the structures. The full ranking holds about 110,000 compounds; the median of “z-score” is about -0.1, and the highest 2% start at about 2. Some of the results follow.

The target in this assay is Metabotropic glutamate receptor 8 (Rattus norvegicus) (UniProt P70579). Nature of the assay: rat mGluR8 modulators via GIRK flux, primary screen, cell-based, thallium flux, HTS (AID 488969). Conditions: HEK293 rat mGluR8, GIRK (G protein-gated inwardly rectifying potassium channel) thallium flux, FluoZin2; at 10 µM; stronger effect = higher value; submaximal glutamate (EC20) added with thallium.
UniProt P70579, sequence (P70579 whole entry, looked up): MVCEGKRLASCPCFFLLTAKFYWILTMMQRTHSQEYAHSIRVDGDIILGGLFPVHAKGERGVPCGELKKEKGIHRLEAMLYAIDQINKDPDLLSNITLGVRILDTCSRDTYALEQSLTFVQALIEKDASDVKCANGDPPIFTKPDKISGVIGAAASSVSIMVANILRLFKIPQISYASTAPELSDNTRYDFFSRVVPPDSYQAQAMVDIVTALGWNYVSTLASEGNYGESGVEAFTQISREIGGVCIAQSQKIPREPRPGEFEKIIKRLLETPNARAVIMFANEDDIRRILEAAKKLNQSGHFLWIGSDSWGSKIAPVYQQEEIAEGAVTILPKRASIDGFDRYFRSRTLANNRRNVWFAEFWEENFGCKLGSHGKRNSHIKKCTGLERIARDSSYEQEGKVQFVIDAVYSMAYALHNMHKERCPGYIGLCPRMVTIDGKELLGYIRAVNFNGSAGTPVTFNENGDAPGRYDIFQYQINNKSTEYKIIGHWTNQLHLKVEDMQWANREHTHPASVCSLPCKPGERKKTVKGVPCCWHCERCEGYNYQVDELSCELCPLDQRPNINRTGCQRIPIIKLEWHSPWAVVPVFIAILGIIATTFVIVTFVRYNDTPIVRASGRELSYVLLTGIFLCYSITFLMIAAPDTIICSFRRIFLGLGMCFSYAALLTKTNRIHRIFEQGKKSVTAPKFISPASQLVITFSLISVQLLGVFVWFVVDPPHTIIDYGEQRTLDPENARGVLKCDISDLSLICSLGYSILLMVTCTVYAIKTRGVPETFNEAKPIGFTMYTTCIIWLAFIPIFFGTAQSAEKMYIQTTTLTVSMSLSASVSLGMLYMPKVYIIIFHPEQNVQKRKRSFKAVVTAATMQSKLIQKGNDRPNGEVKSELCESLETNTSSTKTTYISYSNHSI
The molecule `CC1CCCC(N2CCN(C(=O)c3cccc(F)c3)CC2)C1` (centres undefined) gave a z-score of -0.358.
Under `CSc1ccc(/C=N/NC(=O)CNc2cccc3ccccc23)cc1` stands 0.3; under `CCc1ccccc1N1CC23C=CC(O2)C(C(=O)O)C3C1=O` (centres undefined), 0.331; under `CCCC(=O)Nc1ccc2c(c1)nc(CN1CCCC1)n2C`, -0.187.
Under `O=C(Nc1nc2ccccc2s1)c1cnccn1` stands 0.198; under `CCOc1ccc(C(=O)Nc2cnn(Cc3ccc(Cl)c(Cl)c3)c2)cc1`, -0.23.
Under `O=C(Nc1cccc(C(F)(F)F)c1)c1cccnc1N1CCCC1` stands -0.38; under `COc1ccc(OC)c(N2C(=O)CC(C(C)c3ccccc3)C2=O)c1` (centres undefined), 0.00323.
The molecule `CCNC(=O)/C(=C\c1ccc2c(c1)OCO2)NC(=O)c1ccc(Br)cc1` came in with a z-score of -0.165.
Under `O=C(N/N=C/c1ccc(O)cc1)/C(=C/c1ccccc1)CCO` stands -0.0513; under `Cc1ccc(CSc2nc3ccccc3c(=O)n2Cc2ccco2)cc1`, -0.135.
Under `Cc1ccc(C2CC(=O)NC(SCCC(C)C)=C2C#N)cc1` (centres undefined) stands 0.189; under `COc1cc(-c2nnc(SCc3cc(=O)oc4cc(O)c(O)cc34)o2)cc(OC)c1OC`, -0.37.
Turning to `CCN(Cc1ccccc1)C(=O)C1CCN(Cc2ccc(OC)c(OC)c2OC)CC1`, the z-score is -0.00879.
Under `CCOC(=O)c1[nH]c(C)c(C(=O)N(C)Cc2ccccc2)c1C` stands 0.89; under `Cc1cccc2cc(CN(Cc3ccco3)C(=O)Nc3cccc(C#N)c3)c(Cl)nc12`, -0.186.
`CC(=O)c1cccc(NC(=O)NC(C)c2ccncc2)c1` (centres undefined) had a z-score of 0.208.
Turning to `CC1CN(c2nc(-c3ccc(Br)cc3)nnc2-c2ccccc2)CC(C)N1` (centres undefined), the z-score is 1.79.
Under `COCCNC(=O)CSc1nc2cc(OC)c(OC)cc2c(=O)n1Cc1ccc(OC)cc1` stands 0.134; under `Cc1noc(/C=C/c2ccco2)c1S(=O)(=O)N1CCC(C(=O)NC(C)c2ccccc2)CC1` (centres undefined), -0.435; under `COc1cccc(/C(O)=C2\C(=O)C(=O)N(c3ccccn3)C2c2ccccc2OC)c1` (centres undefined), 0.637.
Turning to `Nc1c(C(=O)Nc2cccc(Cl)c2Cl)sc2nc(-c3cccnc3)ccc12`, the z-score was -0.269.
For the molecule `O=[N+]([O-])c1cccc(C=Nc2cc3c(cc2Br)OCCO3)c1`, the z-score is -0.172.
Molecule `CC(C)(C)CC(=O)NC(=S)NCCc1ccccc1` yielded a z-score of 0.337.
Under `CCOC(=O)c1cnc(SCc2nc(N)nc(Nc3ccc(F)cc3)n2)nc1N` stands 0.602.
Under `Cc1cccc(-n2c(O)c(C=Nc3c(C)n(C)n(-c4ccccc4)c3=O)c3ccccc3c2=O)n1` stands -0.137; under `Cn1c(=O)n(CCN2CCOCC2)c(=O)c2c1nc1n2CCN1c1ccccc1`, 0.384.
In turn, `O=C(NCc1nc2ncc(Br)cc2[nH]1)c1ccccc1` returned a z-score of -0.272.
Under `COc1ccc(S(=O)(=O)N2CCCC2C(=O)Nc2ccc(C)cc2)cc1` (centres undefined) stands 0.0913; under `CC(C)Nc1nnc(SCC(=O)Nc2ccc(F)cc2)s1`, 0.0806; under `Cc1cc(C)c2cc(CN(Cc3nnnn3C3CCCCC3)CC3CCCO3)c(=O)[nH]c2c1` (centres undefined), 0.415.
Under `Cc1sc2ncnc(SCC(=O)NNC(=O)COc3cccc4ccccc34)c2c1C` stands 0.336.
Under `CC(C)c1nc(-c2ccccc2)c(-c2ccccc2)[nH]1` stands -0.0702; under `Cc1ccc(C)c(Cn2c(C(=O)OC(C)C)cc3c2ccn3C)c1`, 0.64; under `CN(C)S(=O)(=O)c1cccc(NC(=S)N/N=C/C(c2ccccc2)c2ccccc2)c1`, 0.384.
The molecule `CC1(C)NC(=O)N(CCOc2cccc(Cl)c2Cl)C1=O` gave a z-score of -1.07.
In turn, `C=CCc1cc(Cl)ccc1OCCOCCNCCOC` gave a z-score of 0.218.
Under `Cc1c(N=Cc2ccc(Cl)o2)c(=O)n(-c2ccccc2)n1C` stands -0.202; under `CC(C)=C1C2C=CC1C1C(=O)N(c3ccc4c(c3)OCO4)C(=O)C21` (centres undefined), 0.577.
Under `COC(=O)c1cc(C(=O)Nc2nnc(CC(C)(C)C)s2)cc([N+](=O)[O-])c1` stands 0.0219; under `Cc1onc(-c2ccccc2Cl)c1C(=O)OCC(=O)c1ccccc1`, -0.213; under `CCOC(=O)C1Cc2ccccc2C(=O)O1` (centres undefined), 0.177.
Under `O=c1cc(-c2ccncc2)oc2ccccc12` stands -0.149; under `O=C(Nc1ccc(F)cc1)Nc1cc(OCC(F)(F)F)cc(OCC(F)(F)F)c1`, -0.712.
Take `COc1ccc(S(=O)(=O)N2CCCC(C(=O)N3CCN(C)CC3)C2)cc1C` (centres undefined): the z-score was -0.202.
Under `CCOc1ccc(S(=O)(=O)NCc2cccs2)cc1` stands 0.106; under `COc1ccc(S(=O)(=O)N(C)CC(=O)N2CCN(Cc3ccccc3)CC2)cc1C`, -0.0728; under `CCCn1nc2ccccc2c1P(=N)(N1CCOCC1)N1CCOCC1`, 0.581.
Under `COc1ccc(-n2cnc3cc(NCc4ccco4)ccc32)cc1` stands -0.49.
As to `COC(=O)c1cc(C(=O)Nc2cc(C)ccn2)cc([N+](=O)[O-])c1`, the z-score is -0.407.
Under `CCN(CC)Cc1ccccc1Sc1ccccc1` stands 0.577; under `O=C(NC1CCCc2ccccc21)C1CCC(CNS(=O)(=O)c2cccc3nsnc23)CC1` (centres undefined), 0.316.
The molecule `CN1CCN(S(=O)(=O)c2ccc3ccccc3c2)CC1` registered a z-score of -0.316.
Under `CCOC(=O)c1c(N2C(=O)C3C4C=CC(O4)C3C2=O)sc2c1CCCC2` (centres undefined) stands -0.431; under `COc1ccccc1CC(=O)Nc1ccc2c(c1)CCC2`, -0.00744.
Under `Cc1nnc(NC(=O)CSc2nnc(-c3ccc(S(=O)(=O)N4CCCC4)cc3)n2C)s1` stands -0.316; under `CCOC(=O)NC1(C(F)(F)F)C(=O)N(Cc2ccccn2)C2=C1C(=O)CC(C)(C)C2` (centres undefined), 0.367; under `CCOC(=O)c1sc2nc(CC(=O)OC)nc(NCCN3CCOCC3)c2c1C`, -0.0547.
`CCCCOC(=O)CSC(=S)N(C)Cc1cccs1` registered a z-score of -0.535.
Under `CCOc1ccc(-n2cnnn2)cc1S(=O)(=O)N1CCCCC1` stands 0.0187; under `C=C(C)CSc1nnc(-c2ccc(C)cc2)n1N`, -0.212; under `CCOCCOC(=O)COC(=O)c1ccccc1NC(=O)c1ccccc1`, -0.606.
As for `CC(OC(=O)CN(C)S(=O)(=O)c1ccc(Cl)cc1)C(=O)Nc1cccc(Cl)c1` (centres undefined), the z-score is -0.0599.
Under `C=CCN1C(=O)CN=C1Nc1ccccc1` stands 0.0847.
Under `CC(C)CN1C(=O)CC(Sc2ccccc2C(=O)O)C1=O` (centres undefined) stands 0.523; under `CSc1nc2ccccc2n1C(=O)NC1CCCCC1`, -0.0515; under `COc1ccccc1-n1c(=O)oc2ccc(Cl)cc2c1=O`, -0.0846.
Under `Clc1ccc(-c2cn3c(n2)-c2ccccc2C3)cc1Cl` stands -0.0744; under `CCC1=NN(C(=O)Cc2ccc(OC)c(OC)c2)C(O)(C(F)(F)F)C1` (centres undefined), 0.0791; under `N#Cc1c(N)nc(SCC(=O)NCCc2ccccc2)c(C#N)c1-c1cccs1`, -1.31.
`CS(=O)(=O)Nc1ccc2c(c1)nc1n2CCOC1` gave a z-score of -0.149.
The molecule `Cc1ccc(-c2nn(-c3ccccc3)cc2/C=N/NC(=O)CSc2nnc(C)n2-c2ccccc2)cc1` came in with a z-score of -0.143.
In turn, `O=C(c1ccc2c(c1)[nH]c(=S)n1c3ccccc3nc21)N1CCN(c2ncccn2)CC1` had a z-score of 0.89.
Under `Cc1onc(-c2c(Cl)cccc2Cl)c1C(=O)c1c[nH]c(C(=O)NC2CC2)c1` stands -0.52.
Under `S=C(NCc1ccco1)Nc1cccc(Cl)c1` stands 0.899; under `C/C(=N/NC(=O)C1CC1(c1ccccc1)c1ccccc1)c1ccco1` (centres undefined), -0.0527; under `CCOc1ccccc1-c1cc(-c2ccccc2)nc2c1c(=O)n(C)c(=O)n2C`, -0.409.
`O=C(COC(=O)c1ccccc1)Nc1cccc(S(=O)(=O)NC2=NCCCCC2)c1` gave a z-score of 0.132.
Under `CC(C)NC(=O)CSc1nc(Cc2cccs2)nc2ccccc12` stands 0.317.
In turn, `COc1ccccc1N1CCN(C(=O)/C=C/c2ccc(C)cc2)CC1` displayed a z-score of -1.07.
In turn, `N#C/C(=C/c1cccs1)c1nc2ccccc2[nH]1` yielded a z-score of -0.0455.
Under `COC(/C=C/Nc1ccc(C)c(C)c1)=C(C#N)C#N` stands -0.179; under `COc1ccccc1N1CC(O)=C(c2nc3ccccc3s2)C1=N`, 0.0242; under `CCOC(=O)c1ccc2c(c1)N(CC)/C(=C\C=C1/SC(=S)N(CC)C1=O)N2CC`, -2.55.
Under `COc1ccc(C2(C(=O)NC(C)C)CCCC2)cc1OC` stands 0.579; under `c1ccc(-c2cnc(SCCN3CCOCC3)n2CC2CCCO2)cc1` (centres undefined), 0.204.
As for `CC(C)(C)c1ccc(-c2nc(NCc3cccnc3)c3ccccc3n2)cc1`, the z-score was -0.213.
Under `CCn1c(SCC(=O)NNC(=O)c2ccccc2)nnc1-c1ccncc1` stands 0.254; under `CCOC(=O)C(C(C)=O)=C1SC2CS(=O)(=O)CC2S1` (centres undefined), -0.38; under `CC(C)CNC(=S)NNC(=O)c1ccccc1OC(F)F`, -0.091.
Under `COc1cccc(C(=O)N(CN2CCCC2=O)c2cccc(Cl)c2)c1` stands -0.159; under `CC(=O)Nc1ccc(C(=O)Nc2nc(-c3cc(C)n(Cc4ccccc4)c3C)cs2)cc1`, -0.188.
Consider `COc1cccc(-c2noc(C3CCCN(C(=O)Cc4ccccc4)C3)n2)c1` (centres undefined), for which the z-score is -0.51.
Under `CCOC(=O)C1CCN(C(=O)CNS(=O)(=O)c2ccc(Br)s2)CC1` stands 0.199; under `COC(=O)c1ccccc1NC(=O)c1cc(-c2cccs2)on1`, 0.00128; under `COC(=O)[C@H](Cc1ccccc1)NC(=O)Nc1ccc(C)cc1`, -0.0415.
As for `CCc1ccc(NC(=O)c2ccnc(C(C)(C)C)c2)cc1`, the z-score was -0.442.
For `Cc1cncn1CCc1nc2c3ccccc3nc(=S)n2[nH]1`, the z-score is -0.535.
Under `O=C(NCc1ccco1)Nc1ccc(Br)cc1Cl` stands -0.793; under `COc1cccc(N2CCN(C(=O)CN(c3ccc(C)cc3)S(=O)(=O)c3c(C)n[nH]c3C)CC2)c1`, -0.164; under `CCOc1cc(C2NN=C(c3ccccc3)S2)ccc1OCc1ccc(F)cc1` (centres undefined), 0.745.
Under `c1ccc(C(c2ccccc2)N2CCN(c3ccc4ccccc4n3)CC2)cc1` stands 0.302; under `C=CCc1cc(/C=C2/NC(=O)N(CC)C2=O)cc(OCC)c1OCc1ccc(C(=O)O)cc1`, -0.929; under `COCc1cc(C)nc2sc(C(=O)N3CCCCC3)c(N)c12`, 0.33.
`O=C(Nc1nnc(SCc2ccccc2Cl)s1)c1cccc([N+](=O)[O-])c1`: the z-score was -0.265.
Under `COc1cccc(-n2nnnc2SCC(=O)Nc2ccc(C(C)=O)cc2)c1` stands 0.36.
Under `O=C(COc1ccccc1[N+](=O)[O-])OCC(=O)N1CCC(Cc2ccccc2)CC1` stands -0.405.
As to `CCOc1ccc(-c2onc(C(F)(F)F)c2-c2cscn2)c(O)c1`, the z-score came to 0.591.
Under `COc1ccc(/C=N/NS(=O)(=O)c2ccc(C)cc2)cc1OC(=O)c1ccccc1` stands -0.489.
